Assay results taken from the supplement of paper PMC5895741.

B1: MS2 coat protein; the commonest letter at each place (parent)
chain: MASNFTQFVLVDNGGTGDVTVAPSNFANGVAEWISSNSRSQAYKVTCSVRQSSAQNRKYTIKVEVPKVATQTVGGVELPVAAWRSYLNMELTIPIFATNSDCELIVKAMQGLLKDGNPIPSAIAANSGIY

Variants of: B1
Assay: apparent fitness score (VLP assembly selection enrichment vs plasmid library) (log10 ratio); higher = better expression / assembly into well-formed VLPs
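Further: counts from Illumina MiSeq reads, cDNA of packaged RNA versus plasmid DNA taken before selection, each replicate independent from library construction onward, expression induced with 0.1% arabinose.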

| Variant | apparent fitness score (log10) |
| --- | --- |
| MASNFTQFVLVDNGGTGDVTVAPSNFANGVAEWISSNSRSQAYKPTCSVRQSSAQNRKYTIKVEVPKVATQTVGGVELPVAAWRSYLNMELTIPIFATNSDCELIVKAMQGLLKDGNPIPSAIAANSGIY | < -4 |
| MASNFTQFVLVDNGGTGDVTVAPSNFANGVAEWISSNSRSQAYKQTCSVRQSSAQNRKYTIKVEVPKVATQTVGGVELPVAAWRSYLNMELTIPIFATNSDCELIVKAMQGLLKDGNPIPSAIAANSGIY | < -4 |
| MASNFTQFVLVDNGGTGDVTVAPSNFANGVAEWISSNSRSQAYKRTCSVRQSSAQNRKYTIKVEVPKVATQTVGGVELPVAAWRSYLNMELTIPIFATNSDCELIVKAMQGLLKDGNPIPSAIAANSGIY | < -4 |
| MASNFTQFVLVDNGGTGDVTVAPSNFANGVAEWISSNSRSQAYKSTCSVRQSSAQNRKYTIKVEVPKVATQTVGGVELPVAAWRSYLNMELTIPIFATNSDCELIVKAMQGLLKDGNPIPSAIAANSGIY | < -4 |
| MASNFTQFVLVDNGGTGDVTVAPSNFANGVAEWISSNSRSQAYKTTCSVRQSSAQNRKYTIKVEVPKVATQTVGGVELPVAAWRSYLNMELTIPIFATNSDCELIVKAMQGLLKDGNPIPSAIAANSGIY | < -4 |
| MASNFTQFVLVDNGGTGDVTVAPSNFANGVAEWISSNSRSQAYKWTCSVRQSSAQNRKYTIKVEVPKVATQTVGGVELPVAAWRSYLNMELTIPIFATNSDCELIVKAMQGLLKDGNPIPSAIAANSGIY | < -4 |
| MASNFTQFVLVDNGGTGDVTVAPSNFANGVAEWISSNSRSQAYKVACSVRQSSAQNRKYTIKVEVPKVATQTVGGVELPVAAWRSYLNMELTIPIFATNSDCELIVKAMQGLLKDGNPIPSAIAANSGIY | < -4 |
| MASNFTQFVLVDNGGTGDVTVAPSNFANGVAEWISSNSRSQAYKVCCSVRQSSAQNRKYTIKVEVPKVATQTVGGVELPVAAWRSYLNMELTIPIFATNSDCELIVKAMQGLLKDGNPIPSAIAANSGIY | < -4 |
| MASNFTQFVLVDNGGTGDVTVAPSNFANGVAEWISSNSRSQAYKVDCSVRQSSAQNRKYTIKVEVPKVATQTVGGVELPVAAWRSYLNMELTIPIFATNSDCELIVKAMQGLLKDGNPIPSAIAANSGIY | < -4 |
| MASNFTQFVLVDNGGTGDVTVAPSNFANGVAEWISSNSRSQAYKVECSVRQSSAQNRKYTIKVEVPKVATQTVGGVELPVAAWRSYLNMELTIPIFATNSDCELIVKAMQGLLKDGNPIPSAIAANSGIY | < -4 |
| MASNFTQFVLVDNGGTGDVTVAPSNFANGVAEWISSNSRSQAYKVFCSVRQSSAQNRKYTIKVEVPKVATQTVGGVELPVAAWRSYLNMELTIPIFATNSDCELIVKAMQGLLKDGNPIPSAIAANSGIY | < -4 |
| MASNFTQFVLVDNGGTGDVTVAPSNFANGVAEWISSNSRSQAYKVGCSVRQSSAQNRKYTIKVEVPKVATQTVGGVELPVAAWRSYLNMELTIPIFATNSDCELIVKAMQGLLKDGNPIPSAIAANSGIY | -1.52 |
| MASNFTQFVLVDNGGTGDVTVAPSNFANGVAEWISSNSRSQAYKVHCSVRQSSAQNRKYTIKVEVPKVATQTVGGVELPVAAWRSYLNMELTIPIFATNSDCELIVKAMQGLLKDGNPIPSAIAANSGIY | < -4 |
| MASNFTQFVLVDNGGTGDVTVAPSNFANGVAEWISSNSRSQAYKVICSVRQSSAQNRKYTIKVEVPKVATQTVGGVELPVAAWRSYLNMELTIPIFATNSDCELIVKAMQGLLKDGNPIPSAIAANSGIY | < -4 |
| MASNFTQFVLVDNGGTGDVTVAPSNFANGVAEWISSNSRSQAYKVKCSVRQSSAQNRKYTIKVEVPKVATQTVGGVELPVAAWRSYLNMELTIPIFATNSDCELIVKAMQGLLKDGNPIPSAIAANSGIY | < -4 |
| MASNFTQFVLVDNGGTGDVTVAPSNFANGVAEWISSNSRSQAYKVLCSVRQSSAQNRKYTIKVEVPKVATQTVGGVELPVAAWRSYLNMELTIPIFATNSDCELIVKAMQGLLKDGNPIPSAIAANSGIY | -0.591 |
| MASNFTQFVLVDNGGTGDVTVAPSNFANGVAEWISSNSRSQAYKVNCSVRQSSAQNRKYTIKVEVPKVATQTVGGVELPVAAWRSYLNMELTIPIFATNSDCELIVKAMQGLLKDGNPIPSAIAANSGIY | < -4 |
| MASNFTQFVLVDNGGTGDVTVAPSNFANGVAEWISSNSRSQAYKVPCSVRQSSAQNRKYTIKVEVPKVATQTVGGVELPVAAWRSYLNMELTIPIFATNSDCELIVKAMQGLLKDGNPIPSAIAANSGIY | < -4 |
| MASNFTQFVLVDNGGTGDVTVAPSNFANGVAEWISSNSRSQAYKVQCSVRQSSAQNRKYTIKVEVPKVATQTVGGVELPVAAWRSYLNMELTIPIFATNSDCELIVKAMQGLLKDGNPIPSAIAANSGIY | -1.18 |
| MASNFTQFVLVDNGGTGDVTVAPSNFANGVAEWISSNSRSQAYKVRCSVRQSSAQNRKYTIKVEVPKVATQTVGGVELPVAAWRSYLNMELTIPIFATNSDCELIVKAMQGLLKDGNPIPSAIAANSGIY | -1.62 |
| MASNFTQFVLVDNGGTGDVTVAPSNFANGVAEWISSNSRSQAYKVSCSVRQSSAQNRKYTIKVEVPKVATQTVGGVELPVAAWRSYLNMELTIPIFATNSDCELIVKAMQGLLKDGNPIPSAIAANSGIY | -0.788 |
| MASNFTQFVLVDNGGTGDVTVAPSNFANGVAEWISSNSRSQAYKVVCSVRQSSAQNRKYTIKVEVPKVATQTVGGVELPVAAWRSYLNMELTIPIFATNSDCELIVKAMQGLLKDGNPIPSAIAANSGIY | -0.215 |

| Variant | apparent fitness score (log10) |
| --- | --- |
| MASNFTQFVLVDNGGTGDVTVAPSNFANGVAEWISSNSRSQAYKVWCSVRQSSAQNRKYTIKVEVPKVATQTVGGVELPVAAWRSYLNMELTIPIFATNSDCELIVKAMQGLLKDGNPIPSAIAANSGIY | -1.06 |
| MASNFTQFVLVDNGGTGDVTVAPSNFANGVAEWISSNSRSQAYKVYCSVRQSSAQNRKYTIKVEVPKVATQTVGGVELPVAAWRSYLNMELTIPIFATNSDCELIVKAMQGLLKDGNPIPSAIAANSGIY | < -4 |
| MASNFTQFVLVDNGGTGDVTVAPSNFANGVAEWISSNSRSQAYKVTASVRQSSAQNRKYTIKVEVPKVATQTVGGVELPVAAWRSYLNMELTIPIFATNSDCELIVKAMQGLLKDGNPIPSAIAANSGIY | -1.15 |
| MASNFTQFVLVDNGGTGDVTVAPSNFANGVAEWISSNSRSQAYKVTDSVRQSSAQNRKYTIKVEVPKVATQTVGGVELPVAAWRSYLNMELTIPIFATNSDCELIVKAMQGLLKDGNPIPSAIAANSGIY | < -4 |
| MASNFTQFVLVDNGGTGDVTVAPSNFANGVAEWISSNSRSQAYKVTESVRQSSAQNRKYTIKVEVPKVATQTVGGVELPVAAWRSYLNMELTIPIFATNSDCELIVKAMQGLLKDGNPIPSAIAANSGIY | < -4 |
| MASNFTQFVLVDNGGTGDVTVAPSNFANGVAEWISSNSRSQAYKVTFSVRQSSAQNRKYTIKVEVPKVATQTVGGVELPVAAWRSYLNMELTIPIFATNSDCELIVKAMQGLLKDGNPIPSAIAANSGIY | 0.37 |
| MASNFTQFVLVDNGGTGDVTVAPSNFANGVAEWISSNSRSQAYKVTGSVRQSSAQNRKYTIKVEVPKVATQTVGGVELPVAAWRSYLNMELTIPIFATNSDCELIVKAMQGLLKDGNPIPSAIAANSGIY | -0.895 |
| MASNFTQFVLVDNGGTGDVTVAPSNFANGVAEWISSNSRSQAYKVTHSVRQSSAQNRKYTIKVEVPKVATQTVGGVELPVAAWRSYLNMELTIPIFATNSDCELIVKAMQGLLKDGNPIPSAIAANSGIY | < -4 |
| MASNFTQFVLVDNGGTGDVTVAPSNFANGVAEWISSNSRSQAYKVTISVRQSSAQNRKYTIKVEVPKVATQTVGGVELPVAAWRSYLNMELTIPIFATNSDCELIVKAMQGLLKDGNPIPSAIAANSGIY | -0.709 |
| MASNFTQFVLVDNGGTGDVTVAPSNFANGVAEWISSNSRSQAYKVTKSVRQSSAQNRKYTIKVEVPKVATQTVGGVELPVAAWRSYLNMELTIPIFATNSDCELIVKAMQGLLKDGNPIPSAIAANSGIY | < -4 |
| MASNFTQFVLVDNGGTGDVTVAPSNFANGVAEWISSNSRSQAYKVTLSVRQSSAQNRKYTIKVEVPKVATQTVGGVELPVAAWRSYLNMELTIPIFATNSDCELIVKAMQGLLKDGNPIPSAIAANSGIY | 0.888 |
| MASNFTQFVLVDNGGTGDVTVAPSNFANGVAEWISSNSRSQAYKVTMSVRQSSAQNRKYTIKVEVPKVATQTVGGVELPVAAWRSYLNMELTIPIFATNSDCELIVKAMQGLLKDGNPIPSAIAANSGIY | 0.647 |
| MASNFTQFVLVDNGGTGDVTVAPSNFANGVAEWISSNSRSQAYKVTNSVRQSSAQNRKYTIKVEVPKVATQTVGGVELPVAAWRSYLNMELTIPIFATNSDCELIVKAMQGLLKDGNPIPSAIAANSGIY | < -4 |
| MASNFTQFVLVDNGGTGDVTVAPSNFANGVAEWISSNSRSQAYKVTPSVRQSSAQNRKYTIKVEVPKVATQTVGGVELPVAAWRSYLNMELTIPIFATNSDCELIVKAMQGLLKDGNPIPSAIAANSGIY | -1.09 |
| MASNFTQFVLVDNGGTGDVTVAPSNFANGVAEWISSNSRSQAYKVTQSVRQSSAQNRKYTIKVEVPKVATQTVGGVELPVAAWRSYLNMELTIPIFATNSDCELIVKAMQGLLKDGNPIPSAIAANSGIY | < -4 |
| MASNFTQFVLVDNGGTGDVTVAPSNFANGVAEWISSNSRSQAYKVTRSVRQSSAQNRKYTIKVEVPKVATQTVGGVELPVAAWRSYLNMELTIPIFATNSDCELIVKAMQGLLKDGNPIPSAIAANSGIY | -0.516 |
| MASNFTQFVLVDNGGTGDVTVAPSNFANGVAEWISSNSRSQAYKVTSSVRQSSAQNRKYTIKVEVPKVATQTVGGVELPVAAWRSYLNMELTIPIFATNSDCELIVKAMQGLLKDGNPIPSAIAANSGIY | -0.636 |
| MASNFTQFVLVDNGGTGDVTVAPSNFANGVAEWISSNSRSQAYKVTTSVRQSSAQNRKYTIKVEVPKVATQTVGGVELPVAAWRSYLNMELTIPIFATNSDCELIVKAMQGLLKDGNPIPSAIAANSGIY | -0.243 |
| MASNFTQFVLVDNGGTGDVTVAPSNFANGVAEWISSNSRSQAYKVTVSVRQSSAQNRKYTIKVEVPKVATQTVGGVELPVAAWRSYLNMELTIPIFATNSDCELIVKAMQGLLKDGNPIPSAIAANSGIY | 1.03 |
| MASNFTQFVLVDNGGTGDVTVAPSNFANGVAEWISSNSRSQAYKVTWSVRQSSAQNRKYTIKVEVPKVATQTVGGVELPVAAWRSYLNMELTIPIFATNSDCELIVKAMQGLLKDGNPIPSAIAANSGIY | -0.369 |
| MASNFTQFVLVDNGGTGDVTVAPSNFANGVAEWISSNSRSQAYKVTYSVRQSSAQNRKYTIKVEVPKVATQTVGGVELPVAAWRSYLNMELTIPIFATNSDCELIVKAMQGLLKDGNPIPSAIAANSGIY | 0.00982 |
| MASNFTQFVLVDNGGTGDVTVAPSNFANGVAEWISSNSRSQAYKVTCAVRQSSAQNRKYTIKVEVPKVATQTVGGVELPVAAWRSYLNMELTIPIFATNSDCELIVKAMQGLLKDGNPIPSAIAANSGIY | 0.29 |
